Some of the results follow. The full chains were built here from the parent and the listed change. Values near 0.05 are background.
B1: TEV protease; numbered along this chain (parent)
chain: MGESLFKGPRDYNPISSSICHLTNESDGHTTSLYGIGFGPFIITNKHLFRRNNGTLVVQSLHGVFKVKDTTTLQQHLVDGRDMIIIRMPKDFPPFPQKLKFREPQREERICLVTTNFQTKSMSSMVSDTSCTFPSGDGIFWKHWIQTKDGQCGSPLVSTRDGFIVGIHSASNFTNTNNYFTSVPKNFMELLTNQEAQQWVSGWRLNADSVLWGGHKVFMVKPEEPFQPVKEATQL

Variants of: B1
Experiment: raw area under fraction-flipped curve 0-4 h after induction (AUC4h, not background-subtracted), DNA-recorder readout of cleavage of the substrate (dimensionless); higher = more cleavage of the substrate by the protease variant
Conditions: temperature: 34 °C; time window: 0-4 h after rhamnose induction
Method: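 In vivo DNA recorder in E. coli TOP10(DE3) ΔrhaA at 34 °C. Each TEVp single-site mutant (parent TEVp 0) is paired with a single-site variant of the 7-mer TEVs (canonical ENLYFQ|S). The substrate sits between flexible linkers in a Bxb1-sfGFP-TEVs-SsrA fusion, so cleavage stabilises Bxb1 and speeds flipping of a recombination array, read by NGS. The value is the raw area under the fraction-flipped curve over 0-4 h after rhamnose induction (AUC4h), with ≥20 reads per time point. It is not background-subtracted; inactive controls average about 0.047.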
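Also: Bxb1 expression induced with 0.2% (w/v) L-rhamnose at OD600 near 0.5, cultures sampled hourly, flipped fraction per protease–substrate barcode pair counted by paired-end Illumina sequencing.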

Variant	area with substrate ENLYFQA	area with substrate ENLYFQC	area with substrate ENLYFQE	area with substrate ENLYFQG	area with substrate ENLYFQI	area with substrate ENLYFQK	area with substrate ENLYFQL	area with substrate ENLYFQM	area with substrate ENLYFQN	area with substrate ENLYFQP	area with substrate ENLYFQQ	area with substrate ENLYFQR	area with substrate ENLYFQS	area with substrate ENLYFQT	area with substrate ENLYFQV	area with substrate ENLYFQW	area with substrate ENLYFQY	area with substrate ENLYFQD	area with substrate ENLYFQF	area with substrate ENLYFQH
MGESLFKGPRDYNPISSSICHLTNESDGHTTSLYGIGFGPFIITNKHLFRRNNGTLVVQSLHGVFKVKDTTTLQQHLVDGRDMIIIRMPKDFPPFPQKLKFREPQREERICLVTTNFQTKSMSSMVSDTSCTFPSGDGIFWGHWIQTKDGQCGSPLVSTRDGFIVGIHSASNFTNTNNYFTSVPKNFMELLTNQEAQQWVSGWRLNADSVLWGGHKVFMVKPEEPFQPVKEATQL [K142G]	0.0711	0.0809	0.0592	0.0812	0.0518	0.067	0.0665	0.0758	0.0641	0.0816	0.0777	0.0636	0.0766	0.0606	0.0653	0.0846	0.0606	–	–	–
MGESLFKGPRDYNPISSSICHLTNESDGHTTSLYGIGFGPFIITNKHLFRRNNGTLVVQSLHGVFKVKDTTTLQQHLVDGRDMIIIRMPKDFPPFPQKLKFREPQREERICLVTTNFQTKSMSSMVSDTSCTFPSGDGIFWKHCIQTKDGQCGSPLVSTRDGFIVGIHSASNFTNTNNYFTSVPKNFMELLTNQEAQQWVSGWRLNADSVLWGGHKVFMVKPEEPFQPVKEATQL [W144C]	0.113	0.115	–	0.0782	0.0558	–	0.0543	0.0855	0.0756	0.0685	–	0.0599	0.0889	0.0616	0.0631	0.067	0.0741	0.0723	0.0433	0.068
MGESLFKGPRDYNPISSSICHLTNESDGHTTSLYGIGFGPFIITNKHLFRRNNGTLVVQSLHGVFKVKDTTTLQQHLVDGRDMIIIRMPKDFPPFPQKLKFREPQREERICLVTTNFQTKSMSSMVSDTSCTFPSGDGIFWKHHIQTKDGQCGSPLVSTRDGFIVGIHSASNFTNTNNYFTSVPKNFMELLTNQEAQQWVSGWRLNADSVLWGGHKVFMVKPEEPFQPVKEATQL [W144H]	0.0639	–	0.0535	0.0711	0.0669	0.0585	0.056	0.0777	0.0608	0.0704	0.0634	0.0499	0.08	0.0526	0.0923	0.0801	0.0714	0.0882	–	0.078
MGESLFKGPRDYNPISSSICHLTNESDGHTTSLYGIGFGPFIITNKHLFRRNNGTLVVQSLHGVFKVKDTTTLQQHLVDGRDMIIIRMPKDFPPFPQKLKFREPQREERICLVTTNFQTKSMSSMVSDTSCTFPSGDGIFWKHKIQTKDGQCGSPLVSTRDGFIVGIHSASNFTNTNNYFTSVPKNFMELLTNQEAQQWVSGWRLNADSVLWGGHKVFMVKPEEPFQPVKEATQL [W144K]	0.0641	0.102	–	–	0.058	–	–	0.0741	–	–	0.0639	0.0626	0.0894	–	–	0.0807	–	0.0707	–	0.0789
MGESLFKGPRDYNPISSSICHLTNESDGHTTSLYGIGFGPFIITNKHLFRRNNGTLVVQSLHGVFKVKDTTTLQQHLVDGRDMIIIRMPKDFPPFPQKLKFREPQREERICLVTTNFQTKSMSSMVSDTSCTFPSGDGIFWKHRIQTKDGQCGSPLVSTRDGFIVGIHSASNFTNTNNYFTSVPKNFMELLTNQEAQQWVSGWRLNADSVLWGGHKVFMVKPEEPFQPVKEATQL [W144R]	0.0509	0.101	–	0.172	0.0671	0.0505	0.0559	0.0776	0.0711	0.062	0.0284	–	0.0818	0.0596	–	–	–	–	–	–
MGESLFKGPRDYNPISSSICHLTNESDGHTTSLYGIGFGPFIITNKHLFRRNNGTLVVQSLHGVFKVKDTTTLQQHLVDGRDMIIIRMPKDFPPFPQKLKFREPQREERICLVTTNFQTKSMSSMVSDTSCTFPSGDGIFWKHSIQTKDGQCGSPLVSTRDGFIVGIHSASNFTNTNNYFTSVPKNFMELLTNQEAQQWVSGWRLNADSVLWGGHKVFMVKPEEPFQPVKEATQL [W144S]	0.0808	0.0944	–	0.0889	0.059	0.0648	0.0569	0.0997	0.0922	–	0.096	0.0584	0.0885	0.0738	–	0.0777	0.0758	–	–	0.118
MGESLFKGPRDYNPISSSICHLTNESDGHTTSLYGIGFGPFIITNKHLFRRNNGTLVVQSLHGVFKVKDTTTLQQHLVDGRDMIIIRMPKDFPPFPQKLKFREPQREERICLVTTNFQTKSMSSMVSDTSCTFPSGDGIFWKHVIQTKDGQCGSPLVSTRDGFIVGIHSASNFTNTNNYFTSVPKNFMELLTNQEAQQWVSGWRLNADSVLWGGHKVFMVKPEEPFQPVKEATQL [W144V]	0.0836	0.0959	–	0.0853	0.0432	0.0663	0.0534	0.061	–	0.0613	0.0556	0.0581	0.086	0.0663	0.0579	0.0527	0.067	–	–	0.0696
MGESLFKGPRDYNPISSSICHLTNESDGHTTSLYGIGFGPFIITNKHLFRRNNGTLVVQSLHGVFKVKDTTTLQQHLVDGRDMIIIRMPKDFPPFPQKLKFREPQREERICLVTTNFQTKSMSSMVSDTSCTFPSGDGIFWKHYIQTKDGQCGSPLVSTRDGFIVGIHSASNFTNTNNYFTSVPKNFMELLTNQEAQQWVSGWRLNADSVLWGGHKVFMVKPEEPFQPVKEATQL [W144Y]	0.075	0.1	–	0.0885	0.0536	0.0677	0.062	0.0671	0.0747	–	–	0.0603	0.0846	0.0641	0.0539	0.0635	0.0307	0.0601	0.0559	0.0731
MGESLFKGPRDYNPISSSICHLTNESDGHTTSLYGIGFGPFIITNKHLFRRNNGTLVVQSLHGVFKVKDTTTLQQHLVDGRDMIIIRMPKDFPPFPQKLKFREPQREERICLVTTNFQTKSMSSMVSDTSCTFPSGDGIFWKHWIQTADGQCGSPLVSTRDGFIVGIHSASNFTNTNNYFTSVPKNFMELLTNQEAQQWVSGWRLNADSVLWGGHKVFMVKPEEPFQPVKEATQL [K148A]	0.125	0.0751	0.0622	0.0836	0.0574	0.0863	0.0769	0.104	0.0694	–	0.0672	0.0675	0.101	0.0582	0.0626	0.0734	–	0.0756	0.0738	0.0661
